Data on 1 substance can be found in patent US20090074666A1 (priority 2005, published 2009).

In this assay the test system is A/Hong Kong/8/68 H3N2. The class given is binding, human influenza virus A. More on the design: key: “+” = binding; “−” = no binding; “(+)” = trace binding.

As to Globoside, the “Binding of influenza virus strain to glycolipids” value is “−”.
